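Exposure lasted 48 hours, with cells grown in 96-well plates and compounds tested at five concentrations. GI50 is the concentration that inhibits growth by half.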 Activity calls are given as the source filed them. No stated cut-off is given here; in the data, active = GI50 up to about 1.1 µM and inactive = higher.
The compounds below were run on NCI-H322M (assay: DTP human tumour cell line panel, 48 h).

| Compound | GI50 |
| --- | --- |
| Cc1ccc(-c2cc(-c3c(C)nn(C)c(=O)c3N)n[nH]2)cc1 | inactive: > 100 µM |
| Oc1cc2c(cc1C(c1ccc3c(c1)OCO3)N1CCN(C(c3ccc4c(c3)OCO4)c3cc4c(cc3O)OCO4)CC1)OCO2 (stereo unspecified) | inactive: 22.2 µM |
| CCOc1ccc(NC2=CC(=O)C(=O)c3ccccc32)cc1 | inactive: 7.66 µM |
| CC(=O)c1ccc2c(c1)CC1(C2)Cc2ccc3c(c2C1=O)CCC3 (stereo unspecified) | inactive: 31.2 µM |
| Oc1cc(-c2ccc(Cl)cc2)cn2c1nc1ccccc12 | inactive: 30.3 µM |
| CCCCCCCCCCCCCCCCCCNc1ccn(C2OC(CO)C(OP(=O)(O)OCC3CCC(n4ccc(N)nc4=O)O3)C2O)c(=O)n1 (stereo unspecified) | inactive: > 100 µM |
| CSc1nc(SC)c2c(C#N)n[nH]c2n1 | inactive: > 100 µM |
| CCOP(=O)(/C=C\n1cnc2c(=O)n(C(C)=O)c(N)nc21)OCC | inactive: > 100 µM |
| COP(=O)(/C=C/C(NC(=O)C(Cl)(Cl)Cl)c1ccccc1)OC (stereo unspecified) | inactive: > 100 µM |
| N#Cc1cc2c(cc1Cl)Sc1nnc(Nc3ccccc3)n1S2(=O)=O | inactive: 2.57 µM |
| O=C1O[C@@H](c2ccc3c(c2)OCO3)C2C(=O)O[C@@H](c3ccc4c(c3)OCO4)C12 (stereo partly specified) | inactive: > 100 µM |
| O=[N+]([O-])C(=C(Nc1ccccc1)Nc1ccccc1)/C(Cl)=C(\Cl)Br | inactive: 15.9 µM |
| N#C[C@H](C(=O)c1ccccc1F)c1nc2ccccc2s1 | inactive: 20.5 µM |
| CN(C)[C@H]1CC[C@H]2[C@@H]3CCC4C[C@@H](NC(=O)NC(Cc5ccccc5)c5nccs5)CC[C@]4(C)[C@H]3CC[C@]12C (stereo partly specified) | inactive: 1.7 µM |
| O=C1OC(c2ccccc2)=N/C1=C/NC(Cc1c[nH]cn1)C(=O)O (stereo unspecified) | inactive: > 100 µM |
| Clc1ccc(/C=N/c2ccc3c(c2)Cc2ccccc2-3)c(Cl)c1 | inactive: > 100 µM |
| CNC(=O)N1CN(c2ccccc2)C2(CCN(CCCC3(c4ccc(F)cc4)OCCO3)CC2)C1=O | inactive: > 100 µM |
| CC[C@@H]1CN(C)[C@H]2Cc3c([nH]c4ccccc34)C(=O)C[C@H]1C2C(=O)OC (stereo partly specified) | inactive: > 100 µM |

| Compound | GI50 |
| --- | --- |
| O=C1c2ccccc2C(=O)N1CCN(CCN1C(=O)c2ccccc2C1=O)Cc1ccccc1 | inactive: > 100 µM |
| Cc1cc(C)nc(NS(=O)(=O)c2ccc(Nc3c4ccccc4nc4c(C(=O)NCCCN(CCO)CCO)cccc34)cc2)n1 | inactive: 17.1 µM |
| c1ccc(/N=C2\c3ccccc3C3=NCCCN32)cc1 | inactive: > 100 µM |
| CC(C)OP(=O)(OC(C)C)/C(I)=N/Nc1ccc([N+](=O)[O-])cc1 | inactive: > 100 µM |
| CCOC(=O)Nn1cnnc1C | inactive: > 100 µM |
| CC(NC(=O)C(CC(=O)OCc1ccccc1)NC(=O)OCc1ccccc1)c1ccccc1 (stereo unspecified) | inactive: 89.7 µM |
| N#CC(C(=O)/C(=N/N)C(C#N)c1ccccc1)c1ccccc1 (stereo unspecified) | inactive: > 100 µM |
| CCCCCOCC(O)CO (stereo unspecified) | inactive: > 100 µM |
| COc1ccc(OC)c2sc(N3C(=O)/C(=C/c4ccc(SC)cc4)N=C3c3ccccc3)nc12 | inactive: 45.1 µM |
| CCOC(=O)/C(=C\NC[C@@H](C)O)c1nc2ccccc2[nH]1 | inactive: > 100 µM |
| COC(=O)CCC1(C)C2CCC1/C(=N/O)C2 (stereo unspecified) | inactive: > 100 µM |
| O=C(Nc1ccc(Cl)cc1)C(=O)C(C(=O)c1ccccc1-c1ccccc1)C1OC(=O)c2ccccc21 (stereo unspecified) | inactive: 20.2 µM |
| N=C(N)c1ccc(/N=N\c2c(O)ccc3c2[nH]c2ccccc23)cc1 | inactive: 11.7 µM |
| CC(=O)Oc1c(C)cc2c(c1C)C(C)(C)CN2C(=O)C(C)(C)C | inactive: > 100 µM |
| Cc1ccc(NC(=O)C2C(=O)N(c3ccc(C)c(C)c3)C(=O)C2N=N)cc1C (stereo unspecified) | inactive: > 100 µM |
| O/N=C1\CCc2cc3c(cc21)CCC3 | inactive: > 100 µM |
| Cc1ccccc1C1CC(=O)CC(c2ccccc2C)C12C(=O)NC(=O)NC2=O (stereo unspecified) | inactive: > 100 µM |
| C1OCC2S[C@@H]3COCO[C@@H]3C2O1 (stereo partly specified) | inactive: > 100 µM |

— ChEMBL document CHEMBL1201862, “PubChem BioAssay data set” (2004)
